# Experimental data taken from PubChem BioAssay AID686970 (National Center for Advancing Translational Sciences (NCATS), 2013).
# Out of some 360,000 compounds screened, about 6,000 (1.7%) were called active. Inconclusive results, whose numbers are uncertain, are shown with a selection of clear calls. Calls follow the shape of the dose curve; as a rule, active = well fitted cell-killing curve with a large enough effect; inconclusive = small, poorly fitted or top-dose-only effect, or effect the other way; inactive = flat fitted curve, though single readings scatter. Potencies of inconclusive entries are left out as doubtful fits.
# Assay: qHTS for induction of synthetic lethality in tumor cells producing 2HG: qHTS for the HT-1080-NT fibrosarcoma cell line;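 also: NT is the 2HG producing partner of a matched IDH1 knockdown line; nearly all actives have a fitted effect of over 55% in size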;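 as to activity, negative = less viability: 0% = DMSO-treated cells and -100% = media-only wells without cells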
# Settings: HT-1080-NT fibrosarcoma viability, CellTiter-Glo ATP luminescence, 48 h; activity, negative = less viability: at 46.1 µM (top of the series) unless noted
# Method in brief: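 Fibrosarcoma NT cells, 750 per well in 5% FBS RPMI, were exposed to compound for 48 hours. Viability: CellTiter-Glo luminescence.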
# Potency is read from the fitted curve at half-maximal effect; tags tell the direction and shape of the fitted curve.
SMILES,Potency,"activity, negative = less viability"
CC(C)CCN1CCN(CC#Cc2ccccc2)CC1CCO (centres undefined),inactive,
COC(=O)c1ccc(NC(=S)NC2CC3CCC2C3)cc1 (centres undefined),"inconclusive [cytotoxic, single point]",
CCc1cccc(C)c1NC(=O)CN1C(=O)c2ccccc2S1(=O)=O,inactive,
CCCCCCC(O)(c1ccc(OC)cc1)C(CN1CCOCC1)c1ccccc1 (centres undefined),"inconclusive [cytotoxic, single point]",
CC(C)Oc1ccccc1C1CC(=O)Nc2cc3c(cc21)OCO3 (centres undefined),active: 3.66 µM,
Cc1c(C(=O)Nc2nc(-c3ccccn3)cs2)oc2ccccc12,"inconclusive [cytotoxic, single point]",
CCCOc1ccc(C(=O)Nc2ccc(S(=O)(=O)Nc3onc(C)c3C)cc2)cc1,"inconclusive [cytotoxic, partial curve]",
O=C(COC(=O)CC1CC2CCC1C2)NCc1ccccc1 (centres undefined),inactive,
CC[n+]1ccccc1/C=C/c1ccc(N(C)C)cc1,"inconclusive [cytotoxic, partial curve]",
CCCCCN(C(=O)CCC(=O)OC(C)C(=O)Nc1ccccc1C)c1c(N)n(CCCC)c(=O)[nH]c1=O (centres undefined),inactive,
Cc1ccc(CNC(=O)CCc2nnc(Cc3ccc(-c4ccccc4)cc3)o2)o1,inactive,
c1cnc2c(c1)ccc1cccnc12,active: 7.31 µM,
COc1ccc(NC(=O)Nc2cccc3ccccc23)c(OC)c1,"inconclusive [cytotoxic, single point]",
C#CCN(C[C@@H]1[C@@H](OC(=O)NC2CC2)[C@@H](OC(=O)NC2CC2)Cn2c(=O)n(CCCCCC)c(=O)n21)S(=O)(=O)c1ccc(C)cc1,inactive,
CCCn1c(=O)c2ccccc2n2c(=S)[nH]nc12,inactive,
CCOc1ccc(C2=Nn3c(nnc3-c3ccccc3OC)SC2)cc1,active: 0.206 µM,
CCOc1ccc2[nH]c(SCC(=O)OC)c([N+](=O)[O-])c2c1,inactive,
Cc1cc(NC(=O)CSc2nc3ccccc3c(=O)n2Cc2ccccc2)no1,inactive,
CC1=C(C(=O)N(C(C)C)C(C)C)CC(CC(=O)NC2CCCCC2)C(=O)N1Cc1ccc(C(C)(C)C)cc1 (centres undefined),"inconclusive [cytotoxic, single point]",
O=C(Nc1ccc(F)c(Cl)c1)c1cncs1,inactive,
COc1ccc(-c2noc(CCC(=O)NCCCN3CCC(Cc4ccccc4)CC3)n2)cc1,"inconclusive [cytotoxic, single point]",
CSCCC(NS(=O)(=O)c1ccc(Cl)cc1)C(=O)OCC(=O)NC12CC3CC(CC(C3)C1)C2 (centres undefined),inactive,
C(=N\Nc1nncc2ccccc12)/c1ccccn1,"inconclusive [cytotoxic, partial curve]",
Cc1nnc(SCC(=O)Nc2ccc(C(N)=O)cc2)n1-c1ccccc1,"inconclusive [rising, partial curve, poor fit]",
CCOC(=O)C1(C(=O)OCC)COC(=O)C1CN1Cc2cc3ccccc3nc2C1 (centres undefined),"inconclusive [cytotoxic, single point]",

SMILES,Potency,"activity, negative = less viability"
COc1cc2ccccc2cc1C(=O)NCC(c1cccs1)N(C)C (centres undefined),inactive,
O=S(=O)(c1cnc(Cl)c(Br)c1)N1CCc2ccccc21,active: 20.6 µM,
CCCCn1c(SCc2ncc(-c3ccccc3)o2)nc2cc(S(N)(=O)=O)ccc21,"inconclusive [cytotoxic, single point]",
Cc1ccc(-c2nc3cccnc3s2)cc1NS(=O)(=O)c1cccs1,inactive,
Cc1ccc(-c2nn3c(C)nnc3s2)cc1NCc1c(F)cccc1Cl,,inconclusive: 0.67% [cytotoxic]
Cc1ccn2cc(C(=O)Nc3ccc4c(c3)OCCO4)nc2c1,"inconclusive [cytotoxic, single point]",
Cc1nc(C(F)(F)F)ccc1C(=O)N1CCCC(C(=O)O)CC1 (centres undefined),inactive,
CCn1nc(C)cc1-c1nnc(Sc2ncc([N+](=O)[O-])s2)n1C,active: 10.3 µM,
O=C(N/N=C/c1ccc(O)c2ncccc12)c1cccc(Br)c1,active: 23.1 µM,
O=C(Nc1nc2ccc([N+](=O)[O-])cc2s1)c1ccc(S(=O)(=O)N2CCCc3ccccc32)cc1,"inconclusive [cytotoxic, full curve]",
CC(C)NC[C@H](O)COc1ccc(CC(N)=O)cc1,,inconclusive: 33%
CCOC(=O)c1c(NC(=O)c2ccn(CC)n2)sc2c1CCCC2,"inconclusive [cytotoxic, single point]",
Cc1c(C(=O)N2CC(C)OC(C)C2)sc2nc(-c3ccc(F)cc3)cn12 (centres undefined),inactive,
CCC1(c2ccccc2)ON(c2c(Br)cccc2Br)C1=O (centres undefined),"inconclusive [cytotoxic, partial curve]",
Nc1nnc(/C=C/c2ccccc2)s1,inactive,
CCOC(=O)CSC1=C(C#N)C(c2ccco2)C(C(=O)OCc2ccccc2)=C(C)N1 (centres undefined),"inconclusive [cytotoxic, single point]",
COC(=O)[C@]12CCCCC=C1N(Cc1ccccc1)C(=O)[C@H](CC(=O)N1CCC(c3ccccc3)CC1)C2,"inconclusive [cytotoxic, single point]",
Oc1ccc(-c2csc(Nc3ncccn3)n2)c(O)c1,"inconclusive [cytotoxic, partial curve]",
O=C(/C=C/c1ccccc1)N1CCN(c2cccc(Cl)n2)CC1,inactive,
CCCCCC[n+]1ccccc1/C=C/c1ccc(N(C)C)cc1,active: 7.31 µM,
O=C(Nc1ccccc1OC(=O)c1ccccc1)c1ccccc1,"inconclusive [cytotoxic, single point]",
CC(C)CC1Nc2ncnc(N3CCCCC3)c2N(Cc2ccccc2)C1=O (centres undefined),"inconclusive [cytotoxic, single point]",
COc1ccc(S(=O)(=O)NC2CC(=O)N(c3ccc(C)c(C)c3)C2)cc1 (centres undefined),inactive,
C=CCOc1ccc(C2C(C#N)=C(N)N(Nc3ccccc3)C3=C2C(=O)CCC3)cc1OC (centres undefined),"inconclusive [cytotoxic, single point]",
